Laboratory results: PMC12820563
The other results are listed elsewhere or left out. The list includes weakly bound sequences.

Biological target: T1, MBP-FoxP3dN (UniProt Q99JB6)
T1 sequence: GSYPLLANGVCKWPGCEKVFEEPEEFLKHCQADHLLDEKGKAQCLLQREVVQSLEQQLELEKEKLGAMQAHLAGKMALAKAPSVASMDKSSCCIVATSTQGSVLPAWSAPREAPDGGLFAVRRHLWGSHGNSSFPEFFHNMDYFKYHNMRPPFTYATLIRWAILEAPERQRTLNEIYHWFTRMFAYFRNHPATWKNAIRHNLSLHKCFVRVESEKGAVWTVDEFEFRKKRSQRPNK
Assay: PD-seq (MBP pull-down with sequencing)
Conditions: 20 mM Tris-HCl pH 7.5, 100 mM NaCl, 1.5 mM MgCl2, 0.4 uM protein, 0.1 uM dsDNA library, 30 min, room temperature, amylose pull-down; high values mean tight binding; double strand, one strand shown

Sequence	binding signal (RPM ratio (pull-down/input))
GATGATTGTTCTCCCAGCTGATGAATTATGCATCTCGAGTAAACAAATTTTCCTAATCTTTCTGTTCAAGCGCCATCTAC	7.47
GATGATTGTTCTCCCAGCTGATGAATTGCCAGCCTCGAGTAAACAAATTTTCCTAATCTTTCTGTTCAAGCGCCATCTAC	0.644
GATGATTGTTCTCCCAGCTGATGAATTCCCGGACTCGAGTAAACAAATTTTCCTAATCTTTCTGTTCAAGCGCCATCTAC	0.164
GATGATTGTTCTCCCAGCTGATGAATTGCCGGAATCGAGTAAACAAATTTTCCTAATCTTTCTGTTCAAGCGCCATCTAC	0.356
GATGATTGTTCTCCCAGCTGATGAATTTATCGCATCGAGTAAACAAATTTTCCTAATCTTTCTGTTCAAGCGCCATCTAC	1.55
GATGATTGTTCTCCCAGCTGATGAATTATATTTTTCGAGTAAACAAATTTTCCTAATCTTTCTGTTCAAGCGCCATCTAC	2.87
GATGATTGTTCTCCCAGCTGATGAATTCAGTAAGTCGAGTAAACAAATTTTCCTAATCTTTCTGTTCAAGCGCCATCTAC	0.414
GATGATTGTTCTCCCAGCTGATGAATTTGGCGATTCGAGTAAACAAATTTTCCTAATCTTTCTGTTCAAGCGCCATCTAC	1.21
GATGATTGTTCTCCCAGCTGATGAATTGGTGTTTTCGAGTAAACAAATTTTCCTAATCTTTCTGTTCAAGCGCCATCTAC	2.17
GATGATTGTTCTCCCAGCTGATGAATTATGTATTTCGAGTAAACAAATTTTCCTAATCTTTCTGTTCAAGCGCCATCTAC	4.76
GATGATTGTTCTCCCAGCTGATGAATTGGGCGAGTCGAGTAAACAAATTTTCCTAATCTTTCTGTTCAAGCGCCATCTAC	0.613
GATGATTGTTCTCCCAGCTGATGAATTTAGGCGCTCGAGTAAACAAATTTTCCTAATCTTTCTGTTCAAGCGCCATCTAC	0.736
GATGATTGTTCTCCCAGCTGATGAATTTTCCGGCTCGAGTAAACAAATTTTCCTAATCTTTCTGTTCAAGCGCCATCTAC	0.18
GATGATTGTTCTCCCAGCTGATGAATTCAGTGTATCGAGTAAACAAATTTTCCTAATCTTTCTGTTCAAGCGCCATCTAC	2.25
GATGATTGTTCTCCCAGCTGATGAATTAATTAGATCGAGTAAACAAATTTTCCTAATCTTTCTGTTCAAGCGCCATCTAC	0.42
GATGATTGTTCTCCCAGCTGATGAATTCGAAAATTCGAGTAAACAAATTTTCCTAATCTTTCTGTTCAAGCGCCATCTAC	0.238
GATGATTGTTCTCCCAGCTGATGAATTGTACACCTCGAGTAAACAAATTTTCCTAATCTTTCTGTTCAAGCGCCATCTAC	0.663
GATGATTGTTCTCCCAGCTGATGAATTAACCTCTTCGAGTAAACAAATTTTCCTAATCTTTCTGTTCAAGCGCCATCTAC	0.239
GATGATTGTTCTCCCAGCTGATGAATTTCCTTGATCGAGTAAACAAATTTTCCTAATCTTTCTGTTCAAGCGCCATCTAC	0.223
GATGATTGTTCTCCCAGCTGATGAATTCATGTACTCGAGTAAACAAATTTTCCTAATCTTTCTGTTCAAGCGCCATCTAC	1.55
GATGATTGTTCTCCCAGCTGATGAATTAACAGCATCGAGTAAACAAATTTTCCTAATCTTTCTGTTCAAGCGCCATCTAC	0.978

Sequence	binding signal (RPM ratio (pull-down/input))
GATGATTGTTCTCCCAGCTGATGAATTTCTCGGCTCGAGTAAACAAATTTTCCTAATCTTTCTGTTCAAGCGCCATCTAC	0.178
GATGATTGTTCTCCCAGCTGATGAATTTGGGCAATCGAGTAAACAAATTTTCCTAATCTTTCTGTTCAAGCGCCATCTAC	1.78
GATGATTGTTCTCCCAGCTGATGAATTCAAAACCTCGAGTAAACAAATTTTCCTAATCTTTCTGTTCAAGCGCCATCTAC	0.276
GATGATTGTTCTCCCAGCTGATGAATTAACACACTCGAGTAAACAAATTTTCCTAATCTTTCTGTTCAAGCGCCATCTAC	0.554
GATGATTGTTCTCCCAGCTGATGAATTTGTGCGCTCGAGTAAACAAATTTTCCTAATCTTTCTGTTCAAGCGCCATCTAC	1.87
GATGATTGTTCTCCCAGCTGATGAATTGGCAGGGTCGAGTAAACAAATTTTCCTAATCTTTCTGTTCAAGCGCCATCTAC	0.278
GATGATTGTTCTCCCAGCTGATGAATTTAAAACTTCGAGTAAACAAATTTTCCTAATCTTTCTGTTCAAGCGCCATCTAC	0.206
GATGATTGTTCTCCCAGCTGATGAATTTCCATGATCGAGTAAACAAATTTTCCTAATCTTTCTGTTCAAGCGCCATCTAC	0.271
GATGATTGTTCTCCCAGCTGATGAATTGCAGATATCGAGTAAACAAATTTTCCTAATCTTTCTGTTCAAGCGCCATCTAC	0.744
GATGATTGTTCTCCCAGCTGATGAATTCAGGTTGTCGAGTAAACAAATTTTCCTAATCTTTCTGTTCAAGCGCCATCTAC	0.849
GATGATTGTTCTCCCAGCTGATGAATTCTCTCTTTCGAGTAAACAAATTTTCCTAATCTTTCTGTTCAAGCGCCATCTAC	0.263
GATGATTGTTCTCCCAGCTGATGAATTCCTCCCCTCGAGTAAACAAATTTTCCTAATCTTTCTGTTCAAGCGCCATCTAC	0.186
GATGATTGTTCTCCCAGCTGATGAATTTTCGTTGTCGAGTAAACAAATTTTCCTAATCTTTCTGTTCAAGCGCCATCTAC	0.712
GATGATTGTTCTCCCAGCTGATGAATTGATAAAGTCGAGTAAACAAATTTTCCTAATCTTTCTGTTCAAGCGCCATCTAC	0.242
GATGATTGTTCTCCCAGCTGATGAATTGCACGTATCGAGTAAACAAATTTTCCTAATCTTTCTGTTCAAGCGCCATCTAC	1.22
GATGATTGTTCTCCCAGCTGATGAATTTTGCGGGTCGAGTAAACAAATTTTCCTAATCTTTCTGTTCAAGCGCCATCTAC	1.32
GATGATTGTTCTCCCAGCTGATGAATTACGTTTATCGAGTAAACAAATTTTCCTAATCTTTCTGTTCAAGCGCCATCTAC	2.86
GATGATTGTTCTCCCAGCTGATGAATTCCAGCATTCGAGTAAACAAATTTTCCTAATCTTTCTGTTCAAGCGCCATCTAC	4.11
GATGATTGTTCTCCCAGCTGATGAATTAAGACTATCGAGTAAACAAATTTTCCTAATCTTTCTGTTCAAGCGCCATCTAC	0.47
GATGATTGTTCTCCCAGCTGATGAATTTCCAATTTCGAGTAAACAAATTTTCCTAATCTTTCTGTTCAAGCGCCATCTAC	0.267
GATGATTGTTCTCCCAGCTGATGAATTTTAGGCATCGAGTAAACAAATTTTCCTAATCTTTCTGTTCAAGCGCCATCTAC	0.78

Sequence	binding signal (RPM ratio (pull-down/input))
GATGATTGTTCTCCCAGCTGATGAATTTTCCGTTTCGAGTAAACAAATTTTCCTAATCTTTCTGTTCAAGCGCCATCTAC	0.295
GATGATTGTTCTCCCAGCTGATGAATTTAGTATTTCGAGTAAACAAATTTTCCTAATCTTTCTGTTCAAGCGCCATCTAC	3.31
GATGATTGTTCTCCCAGCTGATGAATTTCAGCATTCGAGTAAACAAATTTTCCTAATCTTTCTGTTCAAGCGCCATCTAC	4.99
GATGATTGTTCTCCCAGCTGATGAATTAGGTTTATCGAGTAAACAAATTTTCCTAATCTTTCTGTTCAAGCGCCATCTAC	2.69
GATGATTGTTCTCCCAGCTGATGAATTCTCGCGCTCGAGTAAACAAATTTTCCTAATCTTTCTGTTCAAGCGCCATCTAC	0.399
GATGATTGTTCTCCCAGCTGATGAATTTACAGTCTCGAGTAAACAAATTTTCCTAATCTTTCTGTTCAAGCGCCATCTAC	0.574
GATGATTGTTCTCCCAGCTGATGAATTGATCCCTTCGAGTAAACAAATTTTCCTAATCTTTCTGTTCAAGCGCCATCTAC	0.327
GATGATTGTTCTCCCAGCTGATGAATTCCCGCGATCGAGTAAACAAATTTTCCTAATCTTTCTGTTCAAGCGCCATCTAC	0.419
GATGATTGTTCTCCCAGCTGATGAATTAAATAAGTCGAGTAAACAAATTTTCCTAATCTTTCTGTTCAAGCGCCATCTAC	0.361
GATGATTGTTCTCCCAGCTGATGAATTGTGATACTCGAGTAAACAAATTTTCCTAATCTTTCTGTTCAAGCGCCATCTAC	1.63
GATGATTGTTCTCCCAGCTGATGAATTTCCACTCTCGAGTAAACAAATTTTCCTAATCTTTCTGTTCAAGCGCCATCTAC	0.354
GATGATTGTTCTCCCAGCTGATGAATTCCCTCATTCGAGTAAACAAATTTTCCTAATCTTTCTGTTCAAGCGCCATCTAC	0.325
GATGATTGTTCTCCCAGCTGATGAATTAGAGGGATCGAGTAAACAAATTTTCCTAATCTTTCTGTTCAAGCGCCATCTAC	0.306
GATGATTGTTCTCCCAGCTGATGAATTGATGTTATCGAGTAAACAAATTTTCCTAATCTTTCTGTTCAAGCGCCATCTAC	2.08
GATGATTGTTCTCCCAGCTGATGAATTAAATTAGTCGAGTAAACAAATTTTCCTAATCTTTCTGTTCAAGCGCCATCTAC	0.74
GATGATTGTTCTCCCAGCTGATGAATTCGGGACCTCGAGTAAACAAATTTTCCTAATCTTTCTGTTCAAGCGCCATCTAC	0.277
GATGATTGTTCTCCCAGCTGATGAATTCTCTACTTCGAGTAAACAAATTTTCCTAATCTTTCTGTTCAAGCGCCATCTAC	0.233
GATGATTGTTCTCCCAGCTGATGAATTGACACAATCGAGTAAACAAATTTTCCTAATCTTTCTGTTCAAGCGCCATCTAC	1.3
GATGATTGTTCTCCCAGCTGATGAATTCAACCATTCGAGTAAACAAATTTTCCTAATCTTTCTGTTCAAGCGCCATCTAC	0.46
GATGATTGTTCTCCCAGCTGATGAATTTTCCGCGTCGAGTAAACAAATTTTCCTAATCTTTCTGTTCAAGCGCCATCTAC	0.461
GATGATTGTTCTCCCAGCTGATGAATTTTGGCTGTCGAGTAAACAAATTTTCCTAATCTTTCTGTTCAAGCGCCATCTAC	0.42
